Structures are written as SMILES. The source holds more than one record for some entries. The list is limited to them. An entry can have further records. Values given together are repeats across runs, samples, wells, individuals or studies. Counts like (3×) say how often a value occurs here. Where only a bound is given, the exact number is not on record here.

This test relates to 422866-222-R5-J1-PDC spheroids with HUVEC/MSC, viability. The experiment in a line: Anticancer human tumor 422866-222-R5-J1-PDC patient-derived pancreatic adenocarcinoma cell line growth inhibition [GQUAD]. To be noted: for IC50: compound alone; for viability, T/C: stronger effect = lower value. From the text:
DNA G-quadruplex Stabilizer Agents in Combinations in Complex Spheroids
A high-throughput screen of multi-cell type tumor spheroids was designed to identify active combinations of DNA G-quadruplex stabilizer agents and targeted small molecules. Complex spheroids include a stromal component modeled by human endothelial cells (HUVEC) and fibroblasts modeled by human mesenchymal stem cells (MSCs). The concentration ranges selected for each drug and investigational agent were based upon clinically achievable concentrations if the clinical Cmax of the agent was known.
Compounds. The drugs and investigational agents: pidnarulex (CX-5461; NSC782164), APTO-253 (NSC789042), BRACO-19 (NSC847499), peposertib (NSC802822), ceralasertib (NSC780249), elimusertib (NSC800525), camonsertib (NSC841442), AZD-1390 (NSC803789), olaparib (NSC753686), talazoparib (NSC767125), ART-558 (NSC835418), sotorasib (NSC818433), MRTX-1133 (NSC836407), SN-38 (NSC673596), topotecan (NSC609699), etoposide (NSC141540), doxorubicin (NSC123127), gemcitabine (NSC613327), 5-fluorouracil (NSC19893), paclitaxel (NSC125973), vemurafenib (NSC761431), panobinostat (NSC761190), R-306465 (JNJ-16241199; NSC773264), adavosertib (NSC754352), TP-3654 (NSC805149), carboplatin (NSC241240), KSQ-4279 (NSC840948), and staurosporine (NSC755774) were obtained from the National Cancer Institute (NCI) Developmental Therapeutics Program Chemical Repository (34). The FDA-approved anticancer drug set is available from the NCI Developmental Therapeutics Program. […] The stock solutions were prepared in dimethyl sulfoxide (DMSO, Sigma-Aldrich, St. Louis, MO, cat. D2650) at 800-fold the tested concentration and stored at -70 degrees C prior to their use. All drugs and investigational agents were tested over a range starting from a high concentration at or near the clinical Cmax and decreasing in half-log increments. If the clinical Cmax for an agent had not been determined, the highest concentration tested was 10 microM.
2.3 Cell Culture. All cells were maintained in an incubator at 37 degrees C and 5% CO2 with 95% humidity. The PDC lines were cultured according to standard operating procedures established by the NCI PDMR. All PDCs were thawed and cultured in Matrigel-coated flasks prepared with a working solution of 1X Ham's F-12 nutrient mix, without supplementation (Invitrogen, cat. 11765054), 100 U/mL penicillin-streptomycin (Invitrogen, cat. 15140122), and 2.5% Matrigel (Corning Inc., cat. 354248) for the first three passages. The 857933-349-R-J2-PDC line was cultured in 6C/Colon 1B media, which includes advanced DMEM/F-12 (Thermo Fisher Scientific, cat. 12634028), 10 mM HEPES (Thermo Fisher Scientific, cat. 15630080), 1X GlutaMAX supplement (Thermo Fisher Scientific, cat. 35050061), 0.1 mg/mL primocin (InvivoGen, cat. ant-pm-2), 10% defined fetal bovine serum, heat inactivated (HyClone Laboratories Inc., cat. SH30070.03HI), 50% L-WRN conditioned media (ATCC, cat. CRL-3276), 1.25 mM N-Acetyl-L-cysteine (Sigma-Aldrich, cat. A9165), 10 mM nicotinamide (Sigma-Aldrich, cat. N0636), 1X B-27 supplement (Thermo Fisher Scientific, cat. 17504044), 1X N-2 supplement (Thermo Fisher Scientific, cat. 17502048), 10 microM Y-27632 dihydrochloride (Tocris Bioscience, cat. 1254), and 50 ng/mL human EGF recombinant protein (Thermo Fisher Scientific, cat. PHG0311). The 485176-168-R4-J1-PDC line was cultured in Panc media, which includes all 6C/Colon 1B media components plus 100 ng/mL human FGF-10 (Thermo Fisher Scientific, cat. 100-26), 500 nM SB-431542 (Selleckchem, cat. S1067), and gastrin (Tocris, cat. 3006).
[…]
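Note: spheroids exposed to compounds for seven days before reading.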
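Throughout, for viability, T/C: percent viability relative to DMSO vehicle control taken as 100%.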

A word on the IC50: it is the midpoint of a concentration-inhibition curve. Consider `CC1COCCN1c1cc(-c2ccnn2C)c2ccnc(-c3ccn[nH]3)c2n1` (stereo not drawn), for which the IC50 is > 10 µM and 31.6 nM.
What is called viability, T/C is the ratio of treated to control. Turning to `Cc1[nH]c2ccc(F)cc2c1-c1nc2c3cccnc3c3ncccc3c2[nH]1`, the viability, T/C was 95.6, 95.2, 98.4, 95.9, 101, 105 (2×), 73.6, 106, 97.2, 93.5, 95.8% (compound alone 0.0316 µM); 115, 107, 99.8, 94.6, 99.3, 105, 103, 111, 114, 92.3, 88.6, 99.7% (compound alone 0.1 µM); 116, 91.7, 106, 94.4, 99.3, 93.6, 83.9, 91.4, 104, 95.4, 89.9, 114% (compound alone 0.316 µM); 115, 97.4, 95, 93.4, 101 (2×), 87.1, 103, 107 (2×), 92.3, 112% (compound alone 1 µM); 79.9, 87.7, 85.7, 79, 90, 89.6, 86.5, 92.1, 67.5, 57.6, 61.4, 70.7% (compound alone 10 µM).
For `CN(C)c1ccc(Nc2c3ccc(NC(=O)CCN4CCCC4)cc3nc3cc(NC(=O)CCN4CCCC4)ccc23)cc1`, the viability, T/C was 96.2, 93.8, 94.5, 86.4, 89.9, 96.6, 109, 82.8, 91.3, 80.9, 96.7, 84.5% (compound alone 0.316 µM) and 92.2, 106, 94.1, 94.8, 86.6 (2×), 83.7, 74.5, 83.9, 78.7, 83.2% (compound alone 10 µM).
On to `CCCS(=O)(=O)Nc1ccc(F)c(C(=O)c2c[nH]c3ncc(-c4ccc(Cl)cc4)cc23)c1F`, for which the IC50 is > 10 µM (2×) and 567 nM.
For the molecule `Cc1cnc(CNC(=O)c2c(=O)c3ccc(N4CCCN(C)CC4)nc3n3c2sc2ccccc23)cn1`, where the note is “compound alone 0.0316 µM”, the viability, T/C was 95.4, 97.9, 96.5, 95.5, 89.4, 88.6, 85.6, 100, 92.5, 111, 90.1, 91.6%.
With `O=C(NO)c1cnc(N2CCN(S(=O)(=O)c3ccc4ccccc4c3)CC2)nc1`, under “compound alone 10 µM”, the viability, T/C is listed as 1.95%, 72.8%, 1.71%.
Still for that read-out and setting: the same measure for `CC(=O)O[C@H]1C(=O)[C@@]2(C)[C@H]([C@H](OC(=O)c3ccccc3)[C@]3(O)C[C@H](OC(=O)[C@H](O)[C@@H](NC(=O)c4ccccc4)c4ccccc4)C(C)=C1C3(C)C)[C@]1(OC(C)=O)CO[C@@H]1C[C@@H]2O`: 94.9%, 1.48%, 79.4%.
For the molecule `C=CCn1c(=O)c2cnc(Nc3ccc(N4CCN(C)CC4)cc3)nc2n1-c1cccc(C(C)(C)O)n1`, the IC50 is reported as 432 nM, > 10 µM, 658 nM.

The values are drawn from PubChem BioAssay AID2060511 (Molecular Pharmacology Branch, DTP, NCI, 2025).
